These results are taken from PubChem BioAssay AID463173 (ICCB-Longwood Screening Facility, Harvard Medical School, 2010).

Hit rate of the full screen: of about 52,000 compounds, about 1,700 (3.3%) were called active. Cut-off read from the data, not from the text of the source: active = survival mostly below about 52% (no sharp cut-off); inactive = mostly above about 56%. Some of the results follow.

The assay has as its system Wild type. Kind of assay: growth inhibition of S. aureus wild type versus tarO mutant, primary screen, teichoic acid synthesis inhibitors, RN4220, OD600 (AID 463173). The conditions noted are these: S. aureus RN4220 wild type/DeltatarO growth, OD600, 18 h, stronger effect = lower value, screened at 18.75 µg/mL (by protocol).
In the case of `COc1ccc(NC(=O)CSC2=Nc3ccccc3C3=NC(CCC(=O)NCCc4ccccc4)C(=O)N23)c(OC)c1` (centres undefined), the survival was inactive: 70%. With `O=C(NCc1ccco1)c1ccc2c(c1)N(Cc1ccccc1F)C(=O)c1ccccc1S2=O` (centres undefined) the figure was inactive: 87%. Regarding `c1cc(CNc2ccc3c(c2)OCCO3)ccn1`, the survival was inactive: 109%. With `Cc1cccc(OC(=O)c2cc(-c3ccc(Cl)cc3)on2)c1C` the figure was inactive: 116%; with `N#Cc1c(N)nc(SCC(=O)c2cc3ccccc3oc2=O)c(C#N)c1-c1ccc(O)cc1`, inactive: 108%; with `CC(C)CN(CCCNC(=O)c1cn(C)c2ccc(S(=O)(=O)N(C)C3CCCCC3)cc2c1=O)CC(C)C`, inactive: 89%. As for `COc1cccc(NC(=O)C(CCSC)NC(=O)C2CCC(C)CC2)c1` (centres undefined), the survival is inactive: 92%. On to `COc1ccc(CNC(=O)c2cc(C)nc3c2c(C)nn3-c2cccc(Cl)c2C)cc1`, for which the survival was inactive: 72%. With `CC1(C)NC(=O)N(CC(O)CN(Cc2ccccc2)Cc2ccccc2)C1=O` (centres undefined) the figure was inactive: 103%; with `COc1ccc(C)cc1NC(=O)CC(=O)Nc1ccc2nc3n(c(=O)c2c1)CCCCC3`, inactive: 116%. With `CCOc1ccc(S(=O)(=O)N(C(=O)c2ccncc2)c2ccc3oc(C)c(C(=O)OC)c3c2)cc1` the figure was inactive: 129%; with `CCOc1ccc(C2=CC(c3cc(Br)ccc3F)n3ncnc3N2)cc1Cl` (centres undefined), inactive: 64%; with `CC(C)CSc1oc(-c2ccco2)nc1S(=O)(=O)c1ccc(Br)cc1`, active: 27%. In the case of `CCOc1ccc(-n2c(=O)c3c(C)c(C)sc3n(Cc3cc(=O)n4cc(Cl)ccc4n3)c2=O)cc1`, the survival was inactive: 92%.

In the case of `CN(C(=O)CSc1nc2ccccc2n1Cc1cccc(C(F)(F)F)c1)c1ccccc1`, the survival was inactive: 87%. On to `Cc1nn(CC(=O)Nc2cccc(C(F)(F)F)c2)c(=O)c2nn(-c3ccccc3)c(C)c12`, for which the survival is inactive: 78%. For `CCOC(=O)c1c(NC(=O)Cn2nnc3ccccc32)sc2c1CCC(C)C2` (centres undefined) the value was inactive: 104%; for `O=C(NCCc1csc(-c2ccc(F)cc2)n1)c1c(F)cccc1Cl`, inactive: 127%; for `O=C(COC(=O)c1cc(-c2ccccc2)nc2c(Cl)cccc12)c1ccc(F)cc1`, inactive: 81%. For `Cc1ccc(NC(=O)c2ccc3[nH]c(C)cc(=O)c3c2)c(C)c1` the value was inactive: 85%; for `Cc1ccc(NC(=O)Cc2coc3c(C)c(C)ccc23)cc1Cl`, inactive: 93%.

With `CC1(C)CC(=O)C2=C(C1)Nc1ccccc1N1C(=O)c3ccccc3C21` (centres undefined), the survival was inactive: 114%. With `Cc1ccc(CCNC(=O)c2cc(-c3ccc(Cl)cc3)n[nH]2)cc1` the figure was inactive: 97%; with `Cc1ccc(Nc2cc(C(=O)NCc3cccs3)c3ccccc3n2)c(C)c1`, inactive: 91%; with `COc1ccccc1CN1CCN(C2CCN(C(=O)NC(C)C)CC2)C(=O)C1=O`, inactive: 74%. With `COc1ccc(Nc2ncc3c(n2)CCN(C(=O)OC(C)(C)C)C3)cc1` the figure was inactive: 71%; with `COc1cc2ccccc2cc1C(=O)Nc1ccc2oc(-c3ccccc3)nc2c1`, active: 4%; with `CCOc1ccccc1C(=O)N(Cc1cccs1)c1ccc(Cl)cc1`, inactive: 86%. Consider `CC(C)Cc1nnc(NC(=O)c2ccccc2)s1`, for which the survival is inactive: 97%.

Take `CCc1ccc2c(c1)-c1ccccc1S(=O)(=O)N2CC(=O)N1CCC(C)CC1`: the survival was inactive: 82%.

Take `Cc1ccccc1CNC(=O)CCC(=O)N1CC2CCCN2c2ccccc21` (centres undefined): the survival is inactive: 65%. With `Cc1cc(O)c(-c2ccnc3cc(-c4ccccc4)nn23)cc1Cl` the figure was inactive: 108%. `CC(=O)c1ccc(NC(=O)Cn2ncc3c(C)n(Cc4ccc(F)cc4)c(C)c3c2=O)cc1`: the survival was inactive: 74%. With `CCN(CC)N=Nc1ccc(C(=O)O)cc1` the figure was inactive: 111%; with `COc1ccccc1C(=O)Nc1nc2nc(C)c(Cc3ccccc3)c(=O)n2[nH]1`, inactive: 113%.

Take `CCSc1nc(Cl)c2ccccc2n1`: the survival is inactive: 103%. As for `COc1ccccc1CNc1ncnc2c1c(-c1ccccc1)cn2-c1cccc(C)c1`, the survival was inactive: 74%.

For `CC1CCN(S(=O)(=O)c2ccc3c(c2)N(CC(=O)N2CCN(c4ccccc4)CC2)C(=O)CO3)CC1`, the survival is inactive: 87%. For `COc1cccc(Cn2c(CNS(=O)(=O)c3ccc4c(c3)CCCC4)nc3cccnc32)c1`, the survival was inactive: 76%.

With `C=CCn1c(C(NC(=O)c2ccc(Cl)cc2Cl)C(C)C)n[nH]c1=S` (centres undefined), the survival is inactive: 121%. With `COc1ccc(Cl)cc1NC(=O)N1CC(=O)Nc2sc3c(c2C1c1ccccc1)CCCC3` (centres undefined) the figure was inactive: 75%.

As to `CCN(CC)C(=O)CSc1nc2ccccc2c(=O)n1Cc1ccco1`, the survival is inactive: 73%.

Take `CC(=O)N(C)c1ccc(N=Nc2c(-c3ccccc3)[nH][nH]c2=O)cc1`: the survival was inactive: 119%. With `Cc1nn(CCCC(=O)Nc2cccc(F)c2)c(=O)c2c1sc1ccccc12` the figure was inactive: 55%. With `COc1cc2c(C(=O)N(C)c3cc(Cl)ccc3OC)cn(CC(C)C)c(=O)c2cc1OC`, the survival was inactive: 89%. For `CCN(C(=O)Cn1c(=O)n(CC2CCC(C(=O)NC)CC2)c(=O)c2sccc21)c1ccccc1` (centres undefined) the value was inactive: 88%; for `COc1ccc(NC(=O)CN2C(=O)CCc3cc(S(=O)(=O)N4CCOCC4)ccc32)cc1Cl`, inactive: 75%.

For the compound `S=C(Nc1ccccc1)NC1CC2CCCC(C1)N2C1CC1` (centres undefined), the survival is inactive: 108%. As for `CC(C)NC(=O)/C=C/c1ccc2c(c1)OCO2`, the survival is inactive: 110%. With `O=C(Nc1ccccc1)c1cn(-c2ccccc2)nc1-c1ccccc1` the figure was inactive: 86%; with `Cc1cccc(-n2c3nc(=O)[nH]c(=O)c-3cc3c(C)nn(-c4ccccc4)c32)c1C`, inactive: 80%; with `COc1ccccc1NC(=O)CSC1=Nc2ccccc2N=C(c2ccc(F)cc2)C1`, inactive: 71%. For `COc1ccc(Cn2ccc3nc(C)c(C(=O)Nc4ccc(OC(F)(F)F)cc4)cc3c2=O)cc1` the value was inactive: 90%; for `CCOC(=O)c1c(Nc2cc(C)cc(C)c2)nnc(-c2ccccc2)c1-c1ccccc1`, inactive: 38%; for `CSc1ccc(CNC(=O)c2cc3cc(S(=O)(=O)N4CCCCC4)ccc3n2C)cc1`, inactive: 76%.

`CCCCC(=O)OC1=C(C(=O)c2ccccc2)N(CC)S(=O)(=O)c2ccccc21`: the survival is inactive: 71%.

`N#CC(C#N)=C(N1CCOCC1)C(F)(F)F`: the survival was inactive: 108%. For `COc1cccc(CNC(=O)C2CCN(S(=O)(=O)N3CCC(C)CC3)CC2)c1` the value was inactive: 76%; for `CC1CCN(S(=O)(=O)c2ccc3nc(Nc4ccc(C#N)cc4)ccc3c2)CC1`, inactive: 68%. With `Cc1cccc(OCCSc2nc(-c3cccs3)nc3cc(=O)[nH]n23)c1` the figure was inactive: 66%; with `COc1ccccc1N1CCN(S(=O)(=O)c2c(C)nc3sc(C)c(C)n3c2=O)CC1`, inactive: 85%; with `COc1ccccc1CNS(=O)(=O)c1ccc(F)c(C(=O)Nc2cc(Cl)ccc2OC)c1`, inactive: 127%. With `O=C(NCC(c1cccnc1)N1CCc2ccccc2C1)C(=O)Nc1ccccc1` (centres undefined), the survival was inactive: 84%. For `COC(=O)C1=CN(CCCN2CCCC2=O)C=C(C(=O)OC)C1c1cccc(F)c1` the value was inactive: 104%. On to `COc1cccc2c1Oc1ncccc1N(C(=O)Nc1cccc(Cl)c1)C2`, for which the survival is inactive: 71%. Regarding `Cn1nc(-c2ccc(C(=O)Nc3cccc(C(F)(F)F)c3)cc2)c2ccccc2c1=O`, the survival is inactive: 69%.

For `CC(=O)NC1C(=O)N=C(SCC(=O)NC(C)c2ccccc2)NC1=O` (centres undefined), the survival was inactive: 108%. With `CCCCC(=O)OC1=C(C(=O)c2ccccc2)N(C)S(=O)(=O)c2ccccc21` the figure was inactive: 108%; with `COc1ccc(CNS(=O)(=O)c2cnc(N)nc2)cc1`, active: -4%. With `CCOc1ccc(NS(=O)(=O)c2ccc3[nH]cc(C(=O)NCc4ccccc4)c(=O)c3c2)cc1` the figure was inactive: 74%.

On to `Cc1cccc(CNC(=O)c2ccc3c(c2)N(C)C(=O)C2CCCCN32)c1` (centres undefined), for which the survival is active: -3%. With `O=C(Nc1ccc(F)cc1F)c1cnn(-c2ccc(F)cc2)c1-n1cccc1` the figure was inactive: 73%; with `CCOc1ccccc1NC(=O)CN1c2ccccc2S(=O)(=O)c2ccccc21`, active: 10%. `Cc1ccc(CNC(=O)c2cc(S(=O)(=O)N3CCCCCC3)cn2C)cc1`: the survival was inactive: 81%. For `Cc1nn(C)c(C)c1S(=O)(=O)N(CC(=O)N1CCN(c2ccccc2)CC1)c1ccc(C(C)C)cc1` the value was inactive: 82%. Regarding `CCOc1ccccc1NC(=O)C1CCN(S(=O)(=O)c2ccc3[nH]c4c(c3c2)CCCCC4)CC1`, the survival is inactive: 70%. With `Cc1ccc(C)c(NC(=O)Cn2c(=O)ccc3cc(S(=O)(=O)N4CCCC4)ccc32)c1` the figure was inactive: 75%; with `O=C(NCc1cccs1)c1ccc(CSc2nc3cccnc3n2Cc2ccccc2)cc1`, inactive: 101%. For `O=C1C2=C(Nc3ccccc3SC2c2ccccc2C(F)(F)F)c2ccccc21` (centres undefined) the value was active: 11%; for `Cc1cc(C)n(-c2nnc(Nc3cc(Cl)ccc3C)c3ccccc23)n1`, inactive: 74%; for `COc1ccccc1NC(=O)c1cc2c([nH]c1=O)CC(C)(C)CC2=O`, inactive: 61%. Take `CCCCCNC(=O)c1ccc2c(c1)nc(C)n2-c1cccc(C)c1`: the survival is active: -2%. For `O=C(CCn1c(=O)c2cccn2c2ccccc21)Nc1ccc(F)cc1` the value was inactive: 67%; for `O=C(NCc1ccccc1Cl)C1COc2ccccc2O1` (centres undefined), inactive: 118%; for `Cc1ccccc1NC(=O)c1ccc(F)c(S(=O)(=O)N(C)C2CCCCC2)c1`, inactive: 117%.

For `COc1ccc(NC(=O)c2sc3nc4c(cc3c2N)CCCCCC4)cc1OC`, the survival is inactive: 83%. For `Cc1nc(-c2ccc(C)c(S(=O)(=O)N3CCC(C(=O)Nc4ccc(Cl)cc4)CC3)c2)no1` the value was inactive: 121%; for `O=C(Nc1ccccc1N1CCN(c2ccccc2)CC1)c1ccccc1`, inactive: 110%. For the compound `CCC1CCCCN1CCCNC(=O)c1cc2c(=O)n(CC)c3ccccc3c2s1` (centres undefined), the survival was inactive: 87%.
